Data reported in PMC7819943, “Rice protein-binding microarrays: a tool to detect cis-acting elements near promoter regions in rice”.
The list shows a part of the results.

Molecular target: T1, OsWOX13 (Oryza sativa, UniProt Q5QMM3 1-267)
T1 sequence: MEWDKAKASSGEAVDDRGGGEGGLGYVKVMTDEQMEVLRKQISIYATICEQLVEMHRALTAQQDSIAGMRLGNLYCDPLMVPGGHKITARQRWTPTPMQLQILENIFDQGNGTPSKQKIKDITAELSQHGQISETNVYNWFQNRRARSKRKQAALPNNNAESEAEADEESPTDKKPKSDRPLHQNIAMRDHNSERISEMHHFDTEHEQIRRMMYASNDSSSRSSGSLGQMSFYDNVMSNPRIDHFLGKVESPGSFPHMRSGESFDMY
Assay: protein-binding microarray (RPBM); PBS, 2% BSA, 51.3 ng/ul salmon testes DNA, 50 uM zinc acetate, 200 nM TF, 25 C, 1 h; high values mean tight binding
Settings: protein: recombinant; tags: N-terminal polyhistidine and DsRed monomer fusion (pET32a); label: CyDye5-dUTP incorporated in the synthesized complementary strand; 3' TTTTT single-stranded linker to array surface; dsDNA, one strand shown
In short: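 In PBS with 2% BSA, salmon testes DNA and 50 µM zinc acetate, 200 nM protein was incubated on a custom Agilent array at 25 °C for 1 h and then washed off. The array had been made double-stranded by primer extension with Cy5-dUTP and blocked with 2% BSA. The proteins were transcription factors fused N-terminally to polyhistidine and DsRed, expressed in E. coli BL21-CodonPlus and purified on Ni–NTA. The binding signal is per-feature fluorescence intensity (arbitrary units) from an Axon 4000B scanner.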

Sequence | binding signal
TACGTAATTGCAGATACAAATTATAGGGTTCAGGTACAAACGGAGTCACCTAGTGCAG | 19300 fluorescence intensity (a.u.)
TACCAGAGATTGACCAAAATGAGTATTTAAGGATGAGGAGCGGAGTCACCTAGTGCAG | 11200 fluorescence intensity (a.u.)
AGCATGACAGGGAGACAAATTAGACTTACTCCAATTTTCTCGGAGTCACCTAGTGCAG | 14600 fluorescence intensity (a.u.)
TTCCTCTAATCACTAGTTATATATATATAGTTTGTCCCCTCGGAGTCACCTAGTGCAG | 5920 fluorescence intensity (a.u.)
TTCTGAATTTTAATTAGCTTTATATTGTATTCCTATATGGCGGAGTCACCTAGTGCAG | 13000 fluorescence intensity (a.u.)
GCGGATTAATTACTACTGGGCTGGCATTCTGATCACTTTGCGGAGTCACCTAGTGCAG | 25400 fluorescence intensity (a.u.)
GAATGATTAGTATATATAAGTATGTAATATATCACGTCACCGGAGTCACCTAGTGCAG | 37000 fluorescence intensity (a.u.)
TCATACGTGCCAATCAAATGATTATATTTAATTTGTAACTCGGAGTCACCTAGTGCAG | 24200 fluorescence intensity (a.u.)
ACTGGTTGACTGACTTGTAATAACGTCTGCCATCTCTCTCCGGAGTCACCTAGTGCAG | 5520 fluorescence intensity (a.u.)
GAGCCTAATTAGTCCATGATTAGTCATAGTGCTACAGTAACGGAGTCACCTAGTGCAG | 45400 fluorescence intensity (a.u.)
AGTATACGTGACGAGACATTACTGCTGTGTCGCGAGGCCCCGGAGTCACCTAGTGCAG | 3370 fluorescence intensity (a.u.)
TTATAATTTAAATTTTAACAACGGCTTATAAACTGTGAGGCGGAGTCACCTAGTGCAG | 46800 fluorescence intensity (a.u.)
ATGTGATGGAAAAGTTGCAAGTTTGAAGAAAAGTTTTGGACGGAGTCACCTAGTGCAG | 4700 fluorescence intensity (a.u.)
GTTATTATTGATGACATATGGGATAGGAAATCATGGGAATCGGAGTCACCTAGTGCAG | 6050 fluorescence intensity (a.u.)
TCAATTTATTAAATTTGTAATAGTTAAAACTTAGCTAACTCGGAGTCACCTAGTGCAG | 4070 fluorescence intensity (a.u.)
CGAGTACTCCTAGTCAATCAATCGATTTCTCTCTATGGCGCGGAGTCACCTAGTGCAG | 10700 fluorescence intensity (a.u.)
CTTGATTATGAGCCCATGACTCTGGCCTTTGTATAGCCCACGGAGTCACCTAGTGCAG | 41600 fluorescence intensity (a.u.)
CTACTAATTGTTTTCGGTTTAAACAAATCAAAATTAGCTTCGGAGTCACCTAGTGCAG | 41000 fluorescence intensity (a.u.)
ATTGTGATGAGGATAATGGCAGTGGGAGGTGGGTATCCCTCGGAGTCACCTAGTGCAG | 9560 fluorescence intensity (a.u.)
TTGATAGATTGATCGTTAGTGCTTTTGTCCAATTTGTTCACGGAGTCACCTAGTGCAG | 64200 fluorescence intensity (a.u.)
TTCAAAGACATTCCCAATCAACATAGTTCAGGTTTCAGAACGGAGTCACCTAGTGCAG | 3720 fluorescence intensity (a.u.)
CAAGCTGTCTAATTAAAAGGGTTTCACAACATTTTGAATGCGGAGTCACCTAGTGCAG | 4100 fluorescence intensity (a.u.)
ATTTTCTTCTTGCTAATTGACTTCCATTTTGTTCGTTGGTCGGAGTCACCTAGTGCAG | 9530 fluorescence intensity (a.u.)
